Test results as given in article PMC6919601, “Identification of Plasmodium dipeptidyl aminopeptidase allosteric inhibitors by high throughput screening” (PLoS ONE, 2019).
Among all 110,000 compounds or so, about 230 (0.21%) showed an effect of 50% or more. Some of the results follow.

Each compound was assayed against DPAP1 (Plasmodium falciparum, UniProt Q8IIJ9) (assay: primary screen, percent inhibition; read by cleavage of a fluorogenic dipeptide substrate; higher = more effect of the substance).
Parameters: species or system P. falciparum D10 trophozoite lysates; single well
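Also: 30 min substrate incubation versus DMSO and 10 µM JCP410 controls.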

Chain of DPAP1 (Q8IIJ9 whole entry, looked up): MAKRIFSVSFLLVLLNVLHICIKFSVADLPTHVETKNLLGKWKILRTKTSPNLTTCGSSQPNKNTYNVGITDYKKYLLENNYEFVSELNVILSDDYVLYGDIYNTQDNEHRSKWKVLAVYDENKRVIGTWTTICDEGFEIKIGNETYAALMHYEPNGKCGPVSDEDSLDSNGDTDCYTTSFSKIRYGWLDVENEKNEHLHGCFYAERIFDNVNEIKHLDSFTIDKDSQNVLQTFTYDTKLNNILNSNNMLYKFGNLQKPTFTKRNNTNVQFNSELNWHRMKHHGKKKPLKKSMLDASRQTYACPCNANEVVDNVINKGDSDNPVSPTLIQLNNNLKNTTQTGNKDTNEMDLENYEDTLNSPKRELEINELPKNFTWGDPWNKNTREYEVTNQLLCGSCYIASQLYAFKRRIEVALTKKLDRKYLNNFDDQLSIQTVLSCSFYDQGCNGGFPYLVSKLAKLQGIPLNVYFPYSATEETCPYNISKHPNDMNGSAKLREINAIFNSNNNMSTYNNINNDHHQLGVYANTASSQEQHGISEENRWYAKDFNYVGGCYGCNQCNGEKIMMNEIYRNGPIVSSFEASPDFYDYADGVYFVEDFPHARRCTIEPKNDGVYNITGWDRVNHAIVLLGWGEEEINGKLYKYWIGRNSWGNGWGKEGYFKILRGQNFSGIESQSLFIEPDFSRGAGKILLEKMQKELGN

| Compound | % Inhibition @ 10 uM |
| --- | --- |
| CCc1ccccc1NC(=O)CN(C)S(=O)(=O)c1ccc(Br)cc1 | -9.11% |
| Cc1nn(-c2ccc(C(=O)O)cc2)c2c1C(=O)CC(C)(C)C2 | -0.865% |
| Cn1cc(NC(=O)NCCCN2CCCCCC2)c2ccccc2c1=O | -2.68% |
| COc1cc(S(=O)(=O)n2c(C)nc3ccccc32)c(C)cc1C | 0.528% |
| CCCC(=O)NCCNC(=O)c1c(O)oc2ccccc2c1=O | -5.46% |
| COc1ccc(CNCc2ccc(SC)cc2)cc1 | -1.96% |
| Cc1cccc(NC(=O)C2CCN(S(=O)(=O)c3cccc4cccnc34)CC2)n1 | 5.1% |
| Cc1cccc(-n2c(SCC(=O)O)nnc2-c2cccs2)c1C | -9.6% |
| O=C(Nc1cc(Cl)cc(Cl)c1)c1ccc2c(c1)OCCO2 | 6.1% |
| CCN1CCN(C(CNC(=O)c2ccc(F)cc2)c2cccnc2)CC1 (stereo not drawn) | 1.68% |
| Cc1ccc(CNc2nc3c(S(=O)(=O)c4ccc(C)cc4)nnn3c3ccsc23)cc1 | -2.85% |
| Cc1cc2oc3c(c(=O)c2cc1C)C(c1ccc(OCC(N)=O)cc1)N(c1nc(C)c(C)s1)C3=O (stereo not drawn) | -1.33% |
| COc1ccc(CCNC(=O)C2CCN(S(=O)(=O)c3cccs3)CC2)cc1OC | -0.601% |
| COc1cc(C2Nc3ccc4ncccc4c3C3=C2C(=O)CC(C)(C)C3)cc(OC)c1OC (stereo not drawn) | 2.01% |
| O=C(Nc1c2c(nn1-c1ccc(F)cc1)CS(=O)(=O)C2)c1ccco1 | -4.49% |
| Cc1nc2ccccc2c2oc(C(=O)NCCN(C)Cc3ccccc3)cc12 | -0.0115% |
| O=C(COc1ccc(Cl)cc1)Nc1nc(-c2ccc(S(=O)(=O)N3CCOCC3)cc2)cs1 | -5.63% |
| COc1cc(Br)c(CN2CCc3ccccc3C2)cc1OC | -5.31% |
| O=S(=O)(NCC(c1ccccc1)N1CC=C(c2ccccc2)CC1)c1ccccc1 (stereo not drawn) | -4.19% |
| O=C(c1ccco1)N1CC2(c3ccccc3)CN(C(=O)c3ccco3)CC(c3ccccc3)(C1)C2=O | -3.49% |
| Cc1cc(-c2ccc(S(=O)(=O)N3CCN(Cc4ccccc4)CC3)s2)on1 | -1.77% |
| CCc1c(CN2CCN(C)CC2)csc1C | -6.36% |
| Cc1sc2nc3n(sc4nc5sc(C)c(C)c5c(=O)n43)c(=O)c2c1C | -0.615% |
| O=C(Nc1nc(-c2ccccc2)cs1)C1CCCN1C(=O)OCc1ccccc1 (stereo not drawn) | -1.96% |
| CCOC(=O)N1CN(Cc2ccccc2)Cc2c1oc1ccccc1c2=O | 2.41% |
| CCOC(=O)c1cnc2c(CC)cccc2c1O | 2.16% |
| Cc1cc(N(C)Cc2ccccc2)nc2cc(O)ccc12 | -1.08% |
